{
  "source": "paper PMC5515408",
  "note": "The other results are listed elsewhere or left out. At the low end of the ranking, values are background and their order means little.",
  "data": [
    {"system": "MYC (p64) + MAX (p21), in MYC:MAX", "assay": "protein-binding microarray (anti-MAX antibody)", "conditions": "PBM: 15 mM Tris-HCl pH 7.5, 100 mM KCl, 0.075% NP40, 7.5 mM beta-mercaptoethanol, 375 ng/ul BSA, 8 ng/ul poly(dA-dT):(dA-dT), 550 ng complex, 60 min, room …; high values mean tight binding; double strand, one strand shown; sequences stand for … in CCGGC…TTAATAGCTAAGATTACTATATCGACG", "values": [
      {"sequence": "TGACAGTACGTA", "binding signal (log2 normalized fluorescence)": 0.0905},
      {"sequence": "TGACTCGGTGTA", "binding signal (log2 normalized fluorescence)": 0.179},
      {"sequence": "TGAATTTTAGTA", "binding signal (log2 normalized fluorescence)": -0.196},
      {"sequence": "TGAGCAAACGTA", "binding signal (log2 normalized fluorescence)": 0.0471},
      {"sequence": "TGATTTGAAGTA", "binding signal (log2 normalized fluorescence)": -0.247},
      {"sequence": "TGATAAGAAGTA", "binding signal (log2 normalized fluorescence)": -0.136},
      {"sequence": "TGATCTCATGTA", "binding signal (log2 normalized fluorescence)": 0.213},
      {"sequence": "TGATGTTGCGTA", "binding signal (log2 normalized fluorescence)": 0.214},
      {"sequence": "TGACCGATGGTA", "binding signal (log2 normalized fluorescence)": 0.22},
      {"sequence": "TGAGATCAAGTA", "binding signal (log2 normalized fluorescence)": -0.0172},
      {"sequence": "TGAACATGGGTA", "binding signal (log2 normalized fluorescence)": 0.288},
      {"sequence": "TGAGGACAGGTA", "binding signal (log2 normalized fluorescence)": 0.0882},
      {"sequence": "TGAAGGATGGTA", "binding signal (log2 normalized fluorescence)": 0.0538},
      {"sequence": "TGATAGCCTGTA", "binding signal (log2 normalized fluorescence)": 0.12},
      {"sequence": "TGACAGGTGGTT", "binding signal (log2 normalized fluorescence)": 0.522},
      {"sequence": "TGATATCAAGTA", "binding signal (log2 normalized fluorescence)": 0.0285},
      {"sequence": "AGACACTTTGTA", "binding signal (log2 normalized fluorescence)": 0.3},
      {"sequence": "TGACCCATGGTT", "binding signal (log2 normalized fluorescence)": 0.348},
      {"sequence": "TGAAGCGCAGTA", "binding signal (log2 normalized fluorescence)": 0.0487},
      {"sequence": "TGATCTGACGTA", "binding signal (log2 normalized fluorescence)": -0.0108},
      {"sequence": "TGACTAGAGGTA", "binding signal (log2 normalized fluorescence)": -0.127},
      {"sequence": "TGAGTTTCAGTA", "binding signal (log2 normalized fluorescence)": -0.187},
      {"sequence": "TGATTGAAGGTA", "binding signal (log2 normalized fluorescence)": -0.0128},
      {"sequence": "TGTCGCGTGGTA", "binding signal (log2 normalized fluorescence)": 0.536},
      {"sequence": "TGACGGAAGGTA", "binding signal (log2 normalized fluorescence)": -0.0359},
      {"sequence": "TGAGCAGTTGTA", "binding signal (log2 normalized fluorescence)": 0.0736},
      {"sequence": "TGAAATACCGTA", "binding signal (log2 normalized fluorescence)": 0.102},
      {"sequence": "CGTTAACACTTT", "binding signal (log2 normalized fluorescence)": 0.109},
      {"sequence": "TGAGGTTGCGTA", "binding signal (log2 normalized fluorescence)": -0.062},
      {"sequence": "TGACACGTGTTT", "binding signal (log2 normalized fluorescence)": 0.847},
      {"sequence": "TGACGAAACGTA", "binding signal (log2 normalized fluorescence)": 0.121},
      {"sequence": "TGATTAGTCGTA", "binding signal (log2 normalized fluorescence)": -0.281},
      {"sequence": "TGAATGTGTGTA", "binding signal (log2 normalized fluorescence)": 0.421},
      {"sequence": "TGAGCACTGGTA", "binding signal (log2 normalized fluorescence)": 0.187},
      {"sequence": "TGAATAGAAGTA", "binding signal (log2 normalized fluorescence)": -0.13},
      {"sequence": "CTCATCGCGCCT", "binding signal (log2 normalized fluorescence)": 0.316},
      {"sequence": "TGACGTGTAGTA", "binding signal (log2 normalized fluorescence)": 0.403},
      {"sequence": "TGACTCGTGCTA", "binding signal (log2 normalized fluorescence)": 0.482},
      {"sequence": "TGACTTGCCGTA", "binding signal (log2 normalized fluorescence)": 0.106},
      {"sequence": "TGATGGTCCGTA", "binding signal (log2 normalized fluorescence)": 0.278},
      {"sequence": "TGAGCTTCTGTA", "binding signal (log2 normalized fluorescence)": -0.176},
      {"sequence": "TGACGCGTGCCA", "binding signal (log2 normalized fluorescence)": 0.319},
      {"sequence": "TGAGTAACCGTA", "binding signal (log2 normalized fluorescence)": -0.107},
      {"sequence": "TGATGAATCGTA", "binding signal (log2 normalized fluorescence)": -0.0912},
      {"sequence": "TCATAAGTGGTA", "binding signal (log2 normalized fluorescence)": 0.113},
      {"sequence": "TGATGCTGGGTA", "binding signal (log2 normalized fluorescence)": -0.102},
      {"sequence": "TGAACGATTGTA", "binding signal (log2 normalized fluorescence)": 0.118},
      {"sequence": "TGATCTGATGTA", "binding signal (log2 normalized fluorescence)": 0.061},
      {"sequence": "TGACGGTAGGTA", "binding signal (log2 normalized fluorescence)": -0.0969},
      {"sequence": "TGAGGGAACGTA", "binding signal (log2 normalized fluorescence)": 0.0294},
      {"sequence": "TGACTGCGGGTA", "binding signal (log2 normalized fluorescence)": 0.112},
      {"sequence": "TGAAAGTACGTA", "binding signal (log2 normalized fluorescence)": 0.0813},
      {"sequence": "TGAGCTTGTGTA", "binding signal (log2 normalized fluorescence)": 0.187},
      {"sequence": "TGTGTCGTGGTA", "binding signal (log2 normalized fluorescence)": 0.298},
      {"sequence": "TGAACCAGTGTA", "binding signal (log2 normalized fluorescence)": 0.036},
      {"sequence": "TGAAACCCAGTA", "binding signal (log2 normalized fluorescence)": -0.0164},
      {"sequence": "TGAACCGAGGTA", "binding signal (log2 normalized fluorescence)": 0.0574},
      {"sequence": "TGAAACAAGGTA", "binding signal (log2 normalized fluorescence)": 0.229},
      {"sequence": "GGGCACGTGGTA", "binding signal (log2 normalized fluorescence)": 0.738},
      {"sequence": "TGAATTACTGTA", "binding signal (log2 normalized fluorescence)": 0.0701},
      {"sequence": "TCGTCCCCTGAC", "binding signal (log2 normalized fluorescence)": 0.0104},
      {"sequence": "TGACACCTCGTA", "binding signal (log2 normalized fluorescence)": 0.182},
      {"sequence": "ACGCACGTGGTA", "binding signal (log2 normalized fluorescence)": 0.838},
      {"sequence": "TGAGCGTGTGTA", "binding signal (log2 normalized fluorescence)": 0.287},
      {"sequence": "TGACATGAGGTA", "binding signal (log2 normalized fluorescence)": 0.569},
      {"sequence": "TTACGCGTGGTA", "binding signal (log2 normalized fluorescence)": 0.548},
      {"sequence": "TGACAAGTGGTA", "binding signal (log2 normalized fluorescence)": 0.254},
      {"sequence": "TGATTCAGTGTA", "binding signal (log2 normalized fluorescence)": -0.141},
      {"sequence": "TGAGTTGATGTA", "binding signal (log2 normalized fluorescence)": -0.0944},
      {"sequence": "TGAGGGCGGGTA", "binding signal (log2 normalized fluorescence)": 0.31},
      {"sequence": "TGATAGGGGGTA", "binding signal (log2 normalized fluorescence)": 0.592},
      {"sequence": "TGATCTTATGTA", "binding signal (log2 normalized fluorescence)": 0.0708},
      {"sequence": "TGACTCACAGTA", "binding signal (log2 normalized fluorescence)": 0.217},
      {"sequence": "TGAGCGAGTGTA", "binding signal (log2 normalized fluorescence)": 0.103},
      {"sequence": "TGACCGCTCGTA", "binding signal (log2 normalized fluorescence)": 0.0552}
    ]}
  ]
}
